From PubChem BioAssay AID463173 (ICCB-Longwood Screening Facility, Harvard Medical School, 2010) come the findings set out here.

The whole screen tested about 52,000 compounds, of which about 1,700 (3.3%) were called active. Cut-off read from the data, not from the text of the source: active = survival mostly below about 52% (no sharp cut-off); inactive = mostly above about 56%. The list shows a part of the results.

The assay has as its system Wild type. Nature of the assay: growth inhibition of S. aureus wild type versus tarO mutant, primary screen, teichoic acid synthesis inhibitors, RN4220, OD600 (AID 463173). The conditions noted are these: S. aureus RN4220 wild type/DeltatarO growth, OD600, 18 h, active compounds read low, screened at 18.75 µg/mL (by protocol).
In the case of `Cc1cc(C)cc(OCC(=O)N(Cc2ccc(C)o2)C2CCS(=O)(=O)C2)c1` (stereo unspecified), the survival is inactive: 86%. In the case of `Cc1ccc(-c2nn3c(=O)cc(CN4CCN(C(=O)Nc5cc(Cl)ccc5C)CC4)nc3s2)cc1` it was inactive: 126%. In the case of `COc1ccc(Cn2nnnc2CN2CCN(c3cc(Cl)ccc3C)CC2)cc1` it was inactive: 112%; in that of `COc1cc(OC)c(Nc2ncnc3onc(-c4cccc(Cl)c4)c23)cc1Cl`, inactive: 91%; in that of `CCC(C)NC(=O)CSc1nc2cc3c(cc2c(=O)n1CCCC(=O)NCc1ccc2c(c1)OCO2)OCO3` (stereo unspecified), inactive: 71%.

For `COc1ccc(Cl)cc1NC(=O)c1c(NCc2ccc(C)o2)sc2c1CCCC2`, the survival is inactive: 91%. In the case of `N#CC1=C(S)N(c2ccccc2)C2(CCCCC2)NC1=O` it was inactive: 101%; in that of `COCCNC(=O)c1cc2c(Cl)nc3ccc(C)cc3c2s1`, inactive: 91%; in that of `Cc1ccc(CN(Cc2ccco2)C(=O)c2oc3c(C)c(C)ccc3c2C)cc1`, inactive: 85%.

For the compound `COc1cccc(N(CC(=O)N2CCC(C)CC2)S(=O)(=O)c2ccc(C)cc2)c1`, the survival is inactive: 83%. In the case of `C=CCc1c(C)nc2nc(SCC(=O)Nc3ccc(OCC)cc3)nn2c1C` it was inactive: 130%; in that of `CCCCOc1ccc(C2=NC(c3ccccc3)=Nc3ccc(OC)cc3N2)cc1`, inactive: 81%. As for `Cn1c(=O)c2c(-c3ccccc3Br)n(CCc3ccccc3)cc2n(C)c1=O`, the survival is inactive: 75%. `Clc1ccccc1Cc1cn2cc(-c3ccccc3)nc2s1`: the survival was inactive: 85%. In the case of `CCc1ccc(NC(=O)CSc2nnc(-c3cc4occc4n3C)n2-c2ccccc2C)cc1` it was inactive: 87%; in that of `Cc1cc(C)cc(NC(=O)C2(c3cccs3)CCOCC2)c1`, inactive: 72%; in that of `COc1ccccc1CNC(=O)Cn1nc(C)c2nn(-c3ccc(Cl)cc3)c(C)c2c1=O`, inactive: 45%. As for `CC(C)c1ccc(Nc2ncnc3c2c(-c2ccccc2)cn3-c2ccccc2)cc1`, the survival was inactive: 68%. For `Clc1cccc(-n2ncc3c(N4CCN(Cc5ccccc5)CC4)ncnc32)c1` the value was inactive: 19%.

Regarding `CCCOc1cccc(C(=O)NCc2cccnc2)c1`, the survival was inactive: 120%. For `CC(C)COc1ccccc1C1CC(=O)Nc2cc3c(cc21)OCO3` (stereo unspecified) the value was inactive: 104%; for `N#CC1=C(N)OC2=C(C(=O)CCC2)C12CCCC2`, inactive: 105%; for `COc1cccc(CNC(=O)Cn2ccc3cc(S(=O)(=O)N4CCC(C)CC4)ccc32)c1`, inactive: 75%. In the case of `Cc1ccc(-c2nc3cccnc3s2)cc1NC(=O)Cc1ccccc1` it was inactive: 101%. For `COc1ccc(NC(=O)Cn2ccn(-c3ccccc3)c(=O)c2=O)cc1` the value was inactive: 83%; for `O=C(O)c1n[nH]c2c1CCCCC2`, inactive: 109%. Take `O=S(=O)(c1ccccc1)N1CCc2ccccc21`: the survival was inactive: 121%. Consider `O=C(Nc1ccc(Cl)cc1-c1nc2ccccc2s1)c1ccco1`, for which the survival was inactive: 98%. Regarding `Cc1ccc(-n2nc(C)c3c(C(=O)Nc4ccc(Br)c(C)c4)cc(C)nc32)cc1`, the survival was inactive: 78%. As for `O=C(CCn1[nH]c(=O)c2ccccc2c1=O)NCCO`, the survival was inactive: 95%. In the case of `COCCNC(=O)CSc1nc(-c2ccc(C)cc2)nc2c1c(=O)n(C)c(=O)n2C` it was inactive: 77%; in that of `COC(=O)C1=C(C)NC(=O)C1(NC(=O)c1ccccc1C)C(F)(F)F` (stereo unspecified), inactive: 89%.

With `COc1cccc(-c2nc(SCC(=O)N3CCc4ccccc43)c3c(=O)n(C)c(=O)n(C)c3n2)c1`, the survival is inactive: 135%. For the compound `CCOCCCn1c(=N)c(C(=O)NCC2CCCO2)cc2c(=O)n3cc(C)ccc3nc21` (stereo unspecified), the survival is inactive: 90%.

For `COc1ccc(CCC(=O)NCc2ccc3c(c2)CCN3C(=O)c2ccc(C)cc2)cc1`, the survival was inactive: 70%.

`CCOc1ccccc1CNC(=O)CN1C(=O)CCc2cc(S(=O)(=O)N3CCCCC3)ccc21`: the survival was inactive: 113%. For `Cc1cccc(OCC(=O)Nc2ccc3nc(Nc4cccc(Cl)c4)cc(C)c3c2)c1` the value was inactive: 82%; for `CCOC(=O)c1c(-c2ccccc2)oc2ccc(NS(=O)(=O)c3ccc(C(C)C)cc3)cc12`, inactive: 82%. For `COc1ccccc1NC(=O)c1c(NC(=O)c2ccccc2Cl)sc2c1CCC2` the value was inactive: 85%. For `O=C(NC1CCCCC1)c1cccnc1Nc1ccccc1F` the value was inactive: 113%.

Take `Cn1c(=O)c(=O)n(C)c2cc(NC(=O)c3ccccc3Br)ccc21`: the survival is inactive: 93%.

Regarding `CC(=O)N1CCc2c(sc3c2c(=O)n(Cc2ccccc2)c(=O)n3CC(=O)Nc2ccc(C)c(F)c2)C1`, the survival was inactive: 87%. For `CCOc1ccc(CNC(=O)CCCn2c(=O)c3cccn3c3ccc(F)cc32)cc1` the value was inactive: 65%; for `CCc1ccc(NC(=O)CCn2cnc3ccccc3c2=O)cc1`, inactive: 72%; for `Cc1cc(C)n(CCOc2nonc2N)n1`, inactive: 113%. Turning to `CCc1ccc(S(=O)(=O)c2nnn(-c3cccc(C)c3)c2N)cc1`, the survival was inactive: 69%. In the case of `COc1ccc(CN2C(=O)C(NC(=O)c3ccccc3OC)(C(F)(F)F)N=C2c2ccccc2)cc1` (stereo unspecified) it was inactive: 83%. For `O=C(/C=C\Nc1ccccn1)c1ccc2c(c1)OCO2` the value was inactive: 109%; for `CC(C)c1ccc(OCc2cc(=O)n3c(-c4ccccc4)csc3n2)cc1`, inactive: 127%; for `Cc1ccc(S(=O)(=O)c2nnn3c2nc(NCc2ccccc2Cl)c2sccc23)cc1`, inactive: 92%. For the compound `CCOC(=O)c1ccc(NC(=O)c2nn(C)c3c2COc2ccccc2-3)cc1`, the survival was inactive: 113%. For `COc1cc(-c2cc(OC)c3c(C)oc(C)c3c(=O)c2)ccc1OC(=O)c1cccc(Cl)c1` the value was inactive: 118%; for `COc1ccc(NC(=O)CCCN2C(=O)COc3ccc(C)cc32)cc1OC`, inactive: 114%. In the case of `c1ccc(N2CCN(N=C3c4ccccc4-c4ccccc43)CC2)nc1` it was inactive: 37%. For the compound `CC(C)(C)OC(=O)N1CCC(c2c(C(=O)N3CCN(C(=O)c4ccco4)CC3)cnn2-c2ccccc2Cl)CC1`, the survival was inactive: 93%.

`COCCCNC(=O)c1ccc2c(c1)NC(=O)C(C(C)C)N2` (stereo unspecified): the survival is inactive: 73%. For `O=C(Cn1c(=O)n(-c2ccc(Cl)cc2)c(=O)c2c3c(sc21)CCC3)c1ccccc1` the value was inactive: 72%. `CCOC(=O)c1c(NC(=O)CSc2cn(CCNC(=O)c3ccccc3F)c3ccccc23)sc2c1CCCC2`: the survival is inactive: 95%. On to `Cc1ccc(NC(=O)C(C#N)Cc2ccncc2)cc1C` (stereo unspecified), for which the survival was inactive: 104%.

With `CC(C)(C)NC(=O)c1oc2ccccc2c1NC(=O)c1ccc(F)cc1`, the survival was inactive: 73%.

Turning to `CCc1ccc(S(=O)(=O)c2nnn3c2nc(NCCNC(C)=O)c2cc(Cl)ccc23)cc1`, the survival was inactive: 88%. For `COC(=O)CSc1n[nH]c(CNc2cccc(C)c2)n1` the value was inactive: 108%. For `Cc1ccccc1C(=O)c1cccn1CC(=O)NCc1cccc(Cl)c1`, the survival was inactive: 102%. For `CCC(=O)Nc1ccc(C(=O)Nc2c[nH]c(=O)[nH]c2=O)cc1` the value was inactive: 107%; for `COCCN(CCOC)c1ncnc2c1c(-c1ccccc1)cn2-c1ccc(C)c(Cl)c1`, inactive: 73%. For `Cc1ccc(Cn2cc(CCC(=O)NCc3ccc(OC(C)C)cc3)c3ccccc32)cc1` the value was inactive: 83%; for `CCCCNC(=O)C(CC)Sc1nc2ccccc2c(=O)n1CCc1ccc(OC)c(OC)c1` (stereo unspecified), inactive: 127%; for `CCc1nn(CCCC(=O)NC(C)c2ccccc2)c(=O)c2cc3occc3n12` (stereo unspecified), inactive: 81%. In the case of `Cn1c(SCc2ccccc2F)nc2c([nH]c3ccccc32)c1=O` it was inactive: 99%; in that of `Cc1cc2ccccc2n2c(SCC(=O)O)nnc12`, inactive: 106%. For the compound `CCc1ccc(NC(=O)Cn2c(-c3cncs3)nc3ccccc32)cc1`, the survival is inactive: 70%. For `CC(C)C(Nc1n[nH]c(=O)[nH]c1=O)C(=O)O` (stereo unspecified) the value was inactive: 110%; for `Cc1ccc(NC(=O)Cn2c(=O)n(Cc3ccc4c(c3)OCO4)c(=O)c3ccc(C(=O)NC4CCCCC4)cc32)c(C)c1`, inactive: 82%; for `CCOc1ccc2nc(NCCNC(=O)COc3ccccc3)c(C#N)cc2c1`, inactive: 116%.

As to `COc1ccccc1C(=O)Nc1ccc(OCc2cc(=O)n3cc(C)sc3n2)cc1`, the survival was inactive: 120%. For `COc1ccc(C)cc1NC(=O)c1ccc2c(c1)nnn2C1CCCC1` the value was inactive: 76%.

As for `CCn1c2ccccc2c2cc(CN3CCN(Cc4ccccc4C)CC3)ccc21`, the survival is active: -1%. In the case of `O=C(c1ccc2c(c1)N(Cc1cccc(Cl)c1)C(=O)c1ccccc1S2)N1CCOCC1` it was inactive: 99%. In the case of `Cc1ccc2[nH]c(=O)c3cc(C(=O)NCCc4ccc(Cl)cc4)sc3c2c1` it was inactive: 86%; in that of `O=C1c2oc3ccccc3c(=O)c2C(c2cccc(Cl)c2)N1c1ccccn1` (stereo unspecified), inactive: 70%; in that of `c1ccc(OCCn2c(COc3ccccc3)nc3ccccc32)cc1`, active: -15%. In the case of `O=S(=O)(Nc1ccc(-c2ccc(N3CCCC3)nn2)cc1)c1cc(F)ccc1F` it was inactive: 80%; in that of `CC1=C(C(=O)Nc2ccc(C)cc2C)C(c2ccccc2F)n2nc(SCC(=O)c3ccc(C)cc3)nc2N1` (stereo unspecified), inactive: 152%; in that of `CCOC(=O)/C(C#N)=C1\CC2CCC1(C)C2(C)C` (stereo unspecified), inactive: 117%. On to `O=C(Cn1c(=O)c2cccn2c2cccnc21)NCc1ccccc1F`, for which the survival is inactive: 81%. For `CN1CCN(C(CNC(=O)C(=O)Nc2cccc(Cl)c2)c2ccc3c(c2)OCO3)CC1` (stereo unspecified) the value was inactive: 75%; for `CCc1ccc(NC(=O)c2cnc3sc(N4CCCC4)nn3c2=O)cc1`, inactive: 85%. In the case of `Cc1cc2nc(-c3ccc(OCc4ccccc4)cc3)cc(C(F)(F)F)n2n1` it was inactive: 68%; in that of `COc1ccccc1NC(=O)C1CCC(CNS(=O)(=O)c2ccc3c(c2)CC(C)N3C(C)=O)CC1` (stereo unspecified), inactive: 85%; in that of `Cc1cc(-n2c(C)nc3ccccc3c2=O)ccc1NC(=O)c1ccc([N+](=O)[O-])cc1`, inactive: 82%. For `O=C(Nc1ccc(S(=O)(=O)N2CCCCCC2)cc1)c1cc(=O)c2ccccc2o1` the value was inactive: 81%.
